Several values for one entry are separate records, joined by “and”; a condition that tells them apart may be missing. Equal values may be shown once.
B1: Anti-CD22 10F4v3 LC K149C MC-Sq-Cit-PAB-Tubulysin M (antibody, human IgG1, kappa)
heavy: EVQLVESGGGLVQPGGSLRLSCAASGYEFSRSWMNWVRQAPGKGLEWVGRIYPGDGDTNYSGKFKGRFTISADTSKNTAYLQMNSLRAEDTAVYYCARDGSSWDWYFDVWGQGTLVTVSS[letters of human IgG1 constant region omitted]
light: DIQMTQSPSSLSASVGDRVTITCRSSQSIVHSVGNTFLEWYQQKPGKAPKLLIYKVSNRFSGVPSRFSGSGSGTDFTLTISSLQPEDFATYYCFQGSQFPYTFGQGTKVEIKRTVAAPSVFIFPPSDEQLKSGTASVVCLLNNFYPREAKVQWCVDNALQSGNSQESVTEQDSKDSTYSLSSTLTLSKADYEKHKVYACEVTHQGLSSPVTKSFNRGEC
modifications: here or on the partner: MC-Sq-Cit-PAB-Tubulysin M linker-drug on the engineered Cys of LC K149C (Kabat numbering); DAR 1.8-1.9
B2: Anti-CD22 10F4v3 LC K149C MC-Sq-Cit-PAB Dolastatin 10 (antibody, human IgG1, kappa)
heavy: B1 heavy
light: B1 light
modifications: here or on the partner: MC-Sq-Cit-PAB-Dolastatin 10 linker-drug on the engineered Cys of LC K149C (Kabat numbering); DAR 1.8-1.9

Biological target: CD22 (B-cell receptor CD22-B isoform) (human), P20273
Assay: cell-based or functional assay

CD22 (B-cell receptor CD22-B isoform) (human), P20273, sequence (P20273 20-847): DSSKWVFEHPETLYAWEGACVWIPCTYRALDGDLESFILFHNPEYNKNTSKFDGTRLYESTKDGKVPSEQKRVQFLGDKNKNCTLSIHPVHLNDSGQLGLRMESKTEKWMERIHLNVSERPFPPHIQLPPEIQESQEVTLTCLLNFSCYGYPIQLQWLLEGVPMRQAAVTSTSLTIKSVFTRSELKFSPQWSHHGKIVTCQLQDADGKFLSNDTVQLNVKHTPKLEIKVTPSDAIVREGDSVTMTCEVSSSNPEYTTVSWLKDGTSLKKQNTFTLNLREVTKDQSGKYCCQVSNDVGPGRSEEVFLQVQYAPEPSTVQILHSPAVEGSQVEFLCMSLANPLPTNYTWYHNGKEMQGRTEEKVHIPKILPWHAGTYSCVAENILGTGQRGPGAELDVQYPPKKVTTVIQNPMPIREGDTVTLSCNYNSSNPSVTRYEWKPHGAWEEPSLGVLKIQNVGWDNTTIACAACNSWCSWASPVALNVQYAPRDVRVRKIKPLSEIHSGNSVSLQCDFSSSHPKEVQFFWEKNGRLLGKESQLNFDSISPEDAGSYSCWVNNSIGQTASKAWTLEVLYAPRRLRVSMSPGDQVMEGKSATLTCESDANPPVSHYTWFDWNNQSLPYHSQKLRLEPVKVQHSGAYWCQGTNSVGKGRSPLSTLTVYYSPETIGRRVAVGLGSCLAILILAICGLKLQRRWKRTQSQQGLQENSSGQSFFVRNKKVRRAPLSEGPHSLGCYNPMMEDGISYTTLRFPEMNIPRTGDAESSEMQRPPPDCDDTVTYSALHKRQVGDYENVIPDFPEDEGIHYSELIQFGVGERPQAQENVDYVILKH

Binder | BJAB IC50 (cell killing) | WSU-DLCL2 IC50 (cell killing)
B1 | 17.4 nM and 2610 ng/mL | 0.147 nM and 22.1 ng/mL
B2 | – | 0.385 nM and 57.8 ng/mL
